# Out of some 310,000 compounds screened, about 14,000 (4.5%) showed an effect of 50% or more. The effect is printed as a negative number. This is one part of the list.
# Target: human ether-à-go-go-related gene (hERG) potassium channel (human, UniProt Q12809)
# Test: primary screen, population patch clamp on CHO cells stably expressing hERG
# 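Note: peak tail current of the secondary pulse compared with the same well before compound.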
# Sequence of human ether-à-go-go-related gene (hERG) potassium channel (Q12809 whole entry, looked up): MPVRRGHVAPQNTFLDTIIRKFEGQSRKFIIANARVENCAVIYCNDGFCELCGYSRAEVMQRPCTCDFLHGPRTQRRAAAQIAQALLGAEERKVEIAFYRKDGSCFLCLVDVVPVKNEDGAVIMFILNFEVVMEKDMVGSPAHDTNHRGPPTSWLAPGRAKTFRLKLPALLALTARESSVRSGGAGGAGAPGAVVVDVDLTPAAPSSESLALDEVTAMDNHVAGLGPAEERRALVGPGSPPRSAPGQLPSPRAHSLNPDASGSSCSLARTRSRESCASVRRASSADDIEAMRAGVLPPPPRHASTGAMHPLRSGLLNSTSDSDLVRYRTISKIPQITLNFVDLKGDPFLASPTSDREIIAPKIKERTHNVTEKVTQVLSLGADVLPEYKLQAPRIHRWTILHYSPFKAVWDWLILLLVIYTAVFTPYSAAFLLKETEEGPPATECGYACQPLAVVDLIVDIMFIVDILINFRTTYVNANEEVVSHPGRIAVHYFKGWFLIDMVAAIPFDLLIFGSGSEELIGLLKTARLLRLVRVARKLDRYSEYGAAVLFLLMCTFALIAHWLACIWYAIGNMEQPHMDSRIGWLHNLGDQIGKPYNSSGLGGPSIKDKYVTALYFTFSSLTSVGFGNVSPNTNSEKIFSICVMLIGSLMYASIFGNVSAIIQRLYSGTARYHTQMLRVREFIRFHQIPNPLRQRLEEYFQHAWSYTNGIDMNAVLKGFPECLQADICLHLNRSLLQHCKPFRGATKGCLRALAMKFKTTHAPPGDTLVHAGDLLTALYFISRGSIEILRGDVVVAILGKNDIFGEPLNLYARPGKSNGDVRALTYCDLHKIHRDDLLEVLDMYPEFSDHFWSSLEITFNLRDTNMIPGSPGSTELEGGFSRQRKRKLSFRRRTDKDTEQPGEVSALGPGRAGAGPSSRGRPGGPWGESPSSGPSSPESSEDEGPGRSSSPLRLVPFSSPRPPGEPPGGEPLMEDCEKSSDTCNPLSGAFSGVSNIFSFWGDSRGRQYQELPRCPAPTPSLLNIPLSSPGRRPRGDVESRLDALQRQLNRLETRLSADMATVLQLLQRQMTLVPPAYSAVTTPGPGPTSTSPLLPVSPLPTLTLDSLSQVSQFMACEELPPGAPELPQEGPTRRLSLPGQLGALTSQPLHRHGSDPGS
row,Structure (SMILES),"hERG current change (%, negative = inhibition) at 10uM [%]"
1,COc1ccccc1NC(=O)NNC(=O)c1ccc2ccccc2c1,24.4
2,O=C(NCCO)c1cc([N+](=O)[O-])cc2c1C=Cc1ccccc1O2,-31.4
3,Cc1cccc(N2C(=O)/C(=C/c3ccc(N4CCN(C)CC4)o3)C(=O)NC2=S)c1C,4.19
4,COc1ccc(N(Cc2cc3cccc(C)c3[nH]c2=O)S(=O)(=O)c2ccc(Cl)cc2)cc1,17.4
5,CCn1c(-c2cccc(S(=O)(=O)N3CCCC3)c2)n[nH]c1=S,0.861
6,CN(C)S(=O)(=O)c1cccc(NC(=O)c2cc(=O)[nH]c3ccccc23)c1,-9.21
7,CCOC(=O)C1CCN(C2CCN(Cc3nc(-c4ccccc4)no3)CC2)CC1,-71.5
8,O=C(CSc1nnc(C2CC2)n1CC1CCCO1)Nc1cccc(Cl)c1 (stereo not drawn),-56.1
9,CC(C)c1ccc(N=Cc2c(O)c3ccccc3oc2=O)cc1,16.3
10,CCN(CC)c1ccc(C2N(C(=O)N3CCOCC3)CCN2S(=O)(=O)c2ccc(C)cc2)cc1 (stereo not drawn),-18
11,O=C(O)c1cc(=O)n(Cc2ccccc2)c(=O)[nH]1,15
12,CCOC(=O)c1c(NC(=O)CCC(=O)N2CCOCC2)sc2c1CC(C)(C)OC2,-6
13,COc1ccc(CCN2CCCn3c2nc2c3c(=O)n(CC(C)C)c(=O)n2C)cc1OC,-40.9
14,Cc1ccc(SCc2noc(C(=O)NC(C)C)c2C(=O)O)cc1C,7.76
15,O=C(NCc1ccccc1CN1CCCC1)c1cccc(S(=O)(=O)Nc2ccc(F)cc2)c1,-75.2
16,CCCc1cc(=O)[nH]c(SCC(=O)NC2(C#N)CCCCC2)n1,8.07
17,O=C(CNC(=O)c1ccc(Cl)cc1Cl)OCN1C(=O)c2ccccc2C1=O,3.68
18,O=C1CC(NC23CC4CC(CC(C4)C2)C3)C(=O)N1c1ccc2c(c1)OCO2 (stereo not drawn),1.53
19,O=C(NCCNS(=O)(=O)c1ccc(Cl)cc1)c1cc(OCC(F)(F)F)ccc1OCC(F)(F)F,5.11
20,Cc1cccc(OCC(=O)Nc2nc3ccc([N+](=O)[O-])cc3s2)c1C,15.3
21,CN(Cc1ccccc1F)C(=O)CNC(=O)Cc1cccc2ccccc12,-3.65
22,COc1cc(C(=O)NCC2(c3ccccc3)CCCC2)ccc1OC(C)C,-24.2

row,Structure (SMILES),"hERG current change (%, negative = inhibition) at 10uM [%]"
1,CCOC(=O)C(NC(=O)Nc1ccc(Cl)cn1)(Oc1ccccc1)C(F)(F)F (stereo not drawn),4.75
2,Cc1cccc(N(CC(O)CN2CCCC2)S(=O)(=O)c2ccccc2)c1 (stereo not drawn),-57
3,Cc1ccc(C(=O)CNc2ccc(C)cc2C)cc1,12
4,Cc1ccc(Cl)cc1N(CC(=O)NC(C)c1ccccc1)S(C)(=O)=O (stereo not drawn),13.5
5,CN(CCN1CCc2ccccc2C1)Cc1nc(-c2ccc3c(c2)OCO3)no1,-46.1
6,CC1CC(C)CN(CCCNC(=O)c2cc3c(=O)[nH]c4ccccc4c3n2C)C1 (stereo not drawn),10.7
7,Cc1ccc(/C=N/NC(=O)Cc2c[nH]c3ccccc23)c(C)c1,13.9
8,CCn1c(-c2cccs2)nc2ccccc21,-11.4
9,O=C(c1cccc([N+](=O)[O-])c1)c1ccc2c(c1)OCCOCCOCCO2,-52.8
10,COc1ccccc1CN=C1NC(=O)C(CC(=O)Nc2ccc(OC)c(OC)c2)S1 (stereo not drawn),-1.85
11,CCC(C)(C)NC(=O)C(c1ccccc1)N(Cc1cccs1)C(=O)Cn1nnc2ccccc21 (stereo not drawn),7.58
12,Cc1cccc(NC(=O)CN2C(=O)c3ccccc3S2(=O)=O)n1,6.7
13,O=C(c1coc(=O)c(Br)c1)N1CCC(C(O)(c2ccccc2)c2ccccc2)CC1,-14.8
14,O=C(Cc1csc(Nc2nc(=S)[nH]c3ccccc23)n1)NCCCN1CCN(c2ccccc2F)CC1,-3.52
15,COC(=O)CSc1nc(N)c(NC(=O)c2ccc(OC)c(OC)c2)c(=O)[nH]1,21.5
16,COc1ccccc1Nc1nc(-c2ccccc2O)nc2ccccc12,13.8
17,COc1cc(C(=O)N2CCC(NC(=O)C(Cc3ccccc3C)NC(C)=O)CC2)cc(OC)c1OC (stereo not drawn),1.4
18,Cc1cc2nc(/C(C#N)=C\c3ccc(-c4ccccc4C(=O)O)o3)[nH]c2cc1C,17.4
19,COc1ccc2c(c1)nc(SCC(=O)c1cccs1)n2C,-6.58
20,CCC1C(=O)NCCN1C(=O)c1ccc(OC)c(OC2CCN(C(C)=O)CC2)c1 (stereo not drawn),19.2
21,CC(C)Oc1ccc(C(CC(=O)O)c2ccc(F)cc2)cc1 (stereo not drawn),6.58
22,Cc1ccc([N+](=O)[O-])cc1N(CC(=O)NC1CCCC1)S(C)(=O)=O,23.9

row,Structure (SMILES),"hERG current change (%, negative = inhibition) at 10uM [%]"
1,CC1CN(C(=S)c2cccc([N+](=O)[O-])c2)CC(C)O1 (stereo not drawn),8.78
2,COCCNC(=O)CCc1nnc(C2(c3ccc(Cl)cc3)CCC2)o1,11.8
3,Cc1cc(C(N)=O)c2cc(Br)ccc2n1,1.34
4,Cc1onc(-c2ccccc2Cl)c1C(=O)NC1CCS(=O)(=O)C1 (stereo not drawn),-7.29
5,O=C(CSc1nc2c(c(=O)[nH]1)CCC2)Nc1ccccc1Cl,-6
6,Cc1ccc(C(=O)OCC(=O)NC2CCCC2)cc1,7.18
7,O=C(c1ccc(CNS(=O)(=O)c2ccc(Br)cc2)cc1)N1CCCCC1,18.7
8,CCCCc1cc(=O)oc2c3c(cc(OCC(=O)NCCCO)c12)OC(C)(C)CC3,-18.1
9,O=C(NCCc1ccc(F)cc1)c1ccncc1,-1.35
10,Cc1ccccc1OCC(=O)NNC(=O)CCN1C(=O)c2ccccc2C1=O,3.48
11,c1cnc2cc(-c3ccsc3)ncc2c1,-2.17
12,NS(=O)(=O)c1cccc(NC(=O)CN2CCc3ccccc32)c1,4.39
13,Cc1cc(OCc2cc(C(=O)NCc3csc(C(C)C)n3)no2)cc(C)c1Cl,6.73
14,CC1(C)CC(=O)C=C(NCc2ccco2)C1,-3.7
15,CC(C)(C)c1ccc(COn2c(=O)c(-c3ccco3)[n+]([O-])c3ccccc32)cc1,20.7
16,COc1ccccc1CCNC(=O)C(=O)NCC1OCCN1S(=O)(=O)c1ccccc1 (stereo not drawn),0.0964
17,CC(C)c1ccc(NC(=O)CSc2nnc(OC(=O)N(C)C)n2C2CC2)cc1,-6.86
18,COc1cccc(OC)c1OCCCOc1ccc(C)cc1Br,5.66
19,Cc1cccc(N(C(=O)c2ccc(CN3CCOCC3)o2)C(C(=O)NC(C)(C)C)c2ccc(F)cc2)c1 (stereo not drawn),6.16
20,CCOc1ccc(CCNC(=O)COC(=O)Cn2cnc3ccccc3c2=O)cc1OCC,5.55
21,CC(=O)Nc1cccc(/C(C)=N/NC(=O)c2cccs2)c1,-6.19
22,C/C(=N\Nc1nc2ccccc2[nH]1)c1ccc2c(c1)OCO2,-35.6

row,Structure (SMILES),"hERG current change (%, negative = inhibition) at 10uM [%]"
1,Cn1c(NCc2cccnc2)nc2c1c(=O)n(Cc1ccccc1F)c(=O)n2C,-13.6
2,CC(=O)N1CCN(Cc2nc3cc(NC(=O)COc4ccccc4)ccc3n2C)CC1.Cl,0.239
3,CCC(Sc1nc2c(cnn2-c2ccccc2)c(=O)[nH]1)C(=O)OC (stereo not drawn),-7.46
4,O=C(COC(=O)c1n[nH]c(=O)c2ccccc12)c1ccccc1,16.3
5,O=C(CN1C(=O)C2C3C=CC(C3)C2C1=O)Nc1nc(SCc2ccc(Cl)cc2)n[nH]1 (stereo not drawn),-19.8
6,Nc1nc(NCC(=O)O)nc(NCc2ccccc2)c1[N+](=O)[O-],14.3
7,N#Cc1nccnc1S(=O)(=O)c1cccs1,-2.55
8,Cc1cc(NC(=O)CCC(=O)N(Cc2ccco2)C(C(=O)NC2CCCCC2)c2ccccc2)no1 (stereo not drawn),3.41
9,O=C(COC(=O)/C=C/c1ccco1)NCc1ccco1,7.92
10,NC(=O)[C@@H]1CCCN1Cc1nc(Cc2ccccc2F)no1,7.29
11,Cc1ccc(C)c(NC(=O)CN(C)C(=O)c2cccc(-n3cccc3)c2)c1,-22.2
12,Cc1ccc(N)c(N)c1,6.61
13,C=CCNC(=S)N1CCC(C(=O)c2ccc(OC)cc2)CC1,-33.1
14,COC(=O)C1=CN(Cc2ccc(F)cc2)C=C(C(=O)OC)C1c1ccc(O)c(OC)c1,-11.6
15,Cc1ccc(NC(=S)N2CCC(NC(=O)c3cccc(F)c3)CC2)cc1,-24.9
16,OCCC1CN(Cc2cccc(-c3ccco3)c2)CCN1Cc1ccsc1 (stereo not drawn),-71.6
17,COc1cc2c(cc1OC)[C@H](C)N(C(=O)CSc1nc(O)c(C(C)C)c(=O)[nH]1)CC2,-2.51
18,CCC[N+](CC#Cc1ccccc1)(CCC)CC(=O)c1ccc(Cl)cc1,-67.4
19,Cc1ccc(N2CC(C(=O)NNC(=O)c3ccc(F)cc3)CC2=O)cc1 (stereo not drawn),-14.6
20,COc1cc(C)c(C(N)=O)c(OC)n1,11
21,N#CC1=C2N=C(N)c3c(sc4c3CCCCC4)N2C2=C(C(=O)CCC2)C1c1ccccc1 (stereo not drawn),-4.76
